Results from PubChem BioAssay AID2676 (National Center for Advancing Translational Sciences (NCATS), 2010).
Hit rate of the full screen: of about 370,000 compounds, about 1,100 (0.3%) were called active. The shares of active, inactive and inconclusive entries below differ from those in the screen. The call rests on the fitted dose curve; in most records, active means well fitted activation curve with a large enough effect; inconclusive means small, poorly fitted or top-dose-only effect; inactive means flat fitted curve, though single readings scatter. Potencies of inconclusive entries are doubtful fits and often do not repeat.

Molecular target: Relaxin receptor 1 (Homo sapiens) (UniProt Q9HBX9)
Sequence of UniProt Q9HBX9 (Q9HBX9 whole entry, looked up): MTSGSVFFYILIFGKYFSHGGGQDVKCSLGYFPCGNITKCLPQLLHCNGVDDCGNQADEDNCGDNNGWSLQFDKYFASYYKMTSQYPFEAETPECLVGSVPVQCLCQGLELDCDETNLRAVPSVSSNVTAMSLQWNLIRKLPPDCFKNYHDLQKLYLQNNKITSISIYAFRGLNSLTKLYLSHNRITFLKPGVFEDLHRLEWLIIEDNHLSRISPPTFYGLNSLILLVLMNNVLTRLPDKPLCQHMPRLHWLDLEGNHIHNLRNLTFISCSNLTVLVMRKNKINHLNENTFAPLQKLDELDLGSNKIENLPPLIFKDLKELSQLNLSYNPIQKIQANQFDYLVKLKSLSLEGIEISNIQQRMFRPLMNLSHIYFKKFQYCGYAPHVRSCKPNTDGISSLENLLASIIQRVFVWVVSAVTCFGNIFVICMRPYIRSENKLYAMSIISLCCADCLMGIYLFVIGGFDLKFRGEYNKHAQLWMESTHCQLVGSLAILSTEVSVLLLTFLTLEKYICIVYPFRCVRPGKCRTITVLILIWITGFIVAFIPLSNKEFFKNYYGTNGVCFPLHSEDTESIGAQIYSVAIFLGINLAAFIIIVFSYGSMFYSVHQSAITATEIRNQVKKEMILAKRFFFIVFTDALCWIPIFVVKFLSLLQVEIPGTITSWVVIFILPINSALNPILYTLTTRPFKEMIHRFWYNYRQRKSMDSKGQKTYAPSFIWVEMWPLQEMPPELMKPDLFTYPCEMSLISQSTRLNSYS
Assay: qHTS Assay for Agonists of the Relaxin Receptor RXFP1; further: nearly all actives have a fitted effect of over 60% in size
Details: HEK293T-RXFP1 cAMP TR-FRET, 30 min; series mostly up to 57.5 µM; activation: at the top concentration
How it was run: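 HEK293 cells stably expressing RXFP1, treated 30 min at 37C with compounds plus PDE4 inhibitor Ro 20174; cAMP measured by HTRF TR-FRET. Normalized to buffer and 29 nM porcine relaxin; EC50 by Hill fit.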
On the % scale 0 is the no-effect control and ±100 the full control effect; potency means the concentration at half of the fitted maximal effect; tags describe the fitted curve by direction and shape.

SMILES | Potency | activation
CC(C)Cc1nc2sc3c(SCC(N)=O)ncnc3c2c2c1CCC2 | inconclusive: 39.8 µM [activator, single point] | –
COc1ccc(S(=O)(=O)N2CCN(C(c3ccccc3)c3ccccc3)CC2)cc1NC(C)=O | inconclusive: 39.8 µM [activator, single point] | –
CN1CCN(Cc2c(O)ccc3cc(-c4ccccc4)c(=O)oc23)CC1 | inconclusive: 31.6 µM [activator, single point] | –
CCOc1ccc(-c2cc(C(=O)NCc3ccc(OC)cc3)c3c(-c4ccc(F)cc4)[nH]nc3n2)cc1 | inconclusive: 28.2 µM [activator, partial curve] | –
O=C(CCc1nnc2ccc(N3CCC4(CC3)OCCO4)nn12)NCc1ccccc1Cl | inconclusive: 15.8 µM [activator, partial curve] | –
COc1ccc(C(=O)COC(=O)Cn2cnc3c2c(=O)n(C)c(=O)n3C)c(OC)c1 | active: 15.8 µM | –
COc1ccc(CNC(=O)CSc2cccc3cccnc23)cc1 | inconclusive: 12.6 µM [activator, partial curve] | –
CCc1cc2cc(C)cc(C)c2nc1SCC(=O)Nc1cc(C)on1 | inconclusive: 22.4 µM [activator, partial curve] | –
COc1ccccc1CN1CCN(Cc2ccc3ccccc3c2)CC1 | – | inactive: -2.44%
CCc1cccc(NC(=O)Cn2c(=O)n(Cc3ccccc3)c(=O)c3c2c2cc(OC)ccc2n3C)c1 | inconclusive: 39.8 µM [activator, single point] | –
Cc1cccc(-n2ncc(C#N)c2N)c1 | – | inactive: 0.559%
c1cncc(-c2nn3c(Cn4nnc5ccccc54)nnc3s2)c1 | inconclusive: 22.4 µM [activator, partial curve] | –
Cc1ccc(NC(=O)c2ccc(-n3cccn3)nc2)cc1 | inconclusive: 35.5 µM [activator, single point] | –
O=C(NCc1cccc(F)c1)c1ccc(-n2cnc3cccnc32)cc1 | – | inactive: 0.651%
O=S1(=O)c2ccccc2N(Cc2ccccc2)c2ccccc21 | inconclusive: 35.5 µM [activator, single point] | –
O=C(Nc1cccc(-c2nc3ccccc3o2)c1)c1ccc(-c2ccc(Br)cc2)o1 | inconclusive: 20 µM [activator, partial curve] | –
CCOC(=O)c1ccc(NC(=O)CSc2nnc(-c3cccs3)n2CC)cc1 | inconclusive: 35.5 µM [activator, single point] | –
Cn1c(=O)c2sccc2n2c(CCCC(=O)NCc3ccco3)nnc12 | active: 14.1 µM | –
CC(=O)c1cccc(NC(=O)CNC(=O)c2cc3ccccc3o2)c1 | inconclusive: 28.2 µM [activator, single point] | –
NC(=O)c1nsc(C(=O)N(CC(=O)NC2CCCCC2)c2cccc(F)c2)c1N | – | inactive: 2.9%
Cc1cccc(NC(=O)CCS(=O)(=O)c2ccc3c(c2)n(C)c(=O)c(=O)n3C)c1C | inconclusive: 31.6 µM [activator, single point] | –
COc1ccc(CN2CCC(C(=O)c3ccc(F)cc3)CC2)cc1 | – | inactive: 0.0095%

SMILES | Potency | activation
COC(=O)c1ccccc1NC(=O)CSc1nc2ccsc2c(=O)n1CCC(C)C | inconclusive: 35.5 µM [activator, single point] | –
Cc1ccc2[nH]c3c(=S)nc[nH]c3c2c1 | active: 3.55 µM | –
COc1ccc(OC)c(NC(=O)CN2C(=O)COc3ccc(S(=O)(=O)NC4CCCC4)cc32)c1 | – | inactive: -3.6%
CC1Cc2cc(/C(O)=C3/C(=O)C(=O)N(CCCn4ccnc4)C3c3cccnc3)ccc2O1 (stereo not given) | inconclusive: 25.1 µM [activator, partial curve] | –
CC(=O)c1ccc(NC(=O)c2sc3nc(N4CCOCC4)c4c(c3c2N)CCCC4)cc1 | inconclusive: 28.2 µM [activator, single point] | –
CCOC(=O)Cc1csc(NC(=O)CSc2nc(-c3ccccc3)c(C#N)c(=O)[nH]2)n1 | inconclusive: 22.4 µM [activator, partial curve] | –
CCOC(=O)CCSc1nc(C)c2cc(OC)ccc2n1 | – | inactive: 2.8%
Cn1c(=O)c2sccc2n2c(CCCC(=O)NCCc3ccccc3)nnc12 | inconclusive: 14.1 µM [activator, partial curve] | –
COc1ccccc1CN1COc2ccc3c(oc(=O)c4ccccc43)c2C1 | active: 17.8 µM | –
Cn1c(=O)c2c(ncn2CC(=O)N/N=C/c2cn[nH]c2-c2ccc(F)cc2)n(C)c1=O | active: 14.1 µM | –
Cn1c(=O)c2c(ncn2CC(=O)N/N=C/C=C/c2ccco2)n(C)c1=O | inconclusive: 15.8 µM [activator, partial curve] | –
Cc1sc2nc3ccc(N4CCCC4)nn3c(=O)c2c1C | inconclusive: 25.1 µM [activator, partial curve] | –
Cn1c2ccccc2c2nnc(SCC(=O)NC3CC3)nc21 | inconclusive: 28.2 µM [activator, partial curve] | –
CCN(C(=O)c1cc2c(=O)[nH]c3ccc(C)cc3c2s1)c1cccc(C)c1 | inconclusive: 39.8 µM [activator, single point] | –
N#Cc1nc(-c2ccccc2Cl)oc1N1CCN(C(=O)c2ccco2)CC1 | – | inactive: -0.0101%
Cc1ccc(C)c(Nc2nc3c(S(=O)(=O)c4ccc(C(C)C)cc4)nnn3c3ccsc23)c1 | inconclusive: 31.6 µM [activator, single point] | –
COc1ccc(C(=O)NCCc2nnc3ccc(SCC(=O)N4CCCC4)nn23)cc1 | inconclusive: 25.1 µM [activator, partial curve] | –
CCCn1c(SCCN2CCOCC2)nc2c1c(=O)n(C)c(=O)n2C | inconclusive: 15.8 µM [activator, partial curve] | –
CSc1nc2ncc(-c3ccsc3)c(N)n2n1 | inconclusive: 35.5 µM [activator, single point] | –
CCOc1ccc(-c2nc(-c3cccs3)c(CC(=O)O)s2)cc1OC | inconclusive: 20 µM [activator, partial curve] | –
Clc1cccc(CSc2ccc(-c3cccs3)nn2)c1 | inconclusive: 20 µM [activator, partial curve] | –
COc1ccccc1Cn1c(SCC(=O)C(C)(C)C)nc2ccccc2c1=O | – | inactive: 5.78%

SMILES | Potency | activation
CCc1cc2c(SCC(=O)N(C)C3CCS(=O)(=O)C3)ncnc2s1 (stereo not given) | inconclusive: 28.2 µM [activator, partial curve] | –
CCCOc1ccc(C2C(C(=O)c3ccc(C)o3)=C(O)C(=O)N2Cc2ccco2)cc1OCC (stereo not given) | inconclusive: 20 µM [activator, partial curve] | –
CCn1c(=O)c2sccc2n2c(CCC(=O)NCc3ccc(Cl)cc3)nnc12 | inconclusive: 15.8 µM [activator, partial curve] | –
COc1ccc(C(C)=O)cc1COc1nc(C)nc2ccccc12 | inconclusive: 28.2 µM [activator, partial curve] | –
COc1cc2[nH]c(=S)nc(NCc3cccc(Cl)c3)c2cc1OC | inconclusive: 39.8 µM [activator, single point] | –
COc1cccc(CNC(=O)Cn2c(=O)c3cccn3c3ccccc32)c1 | inconclusive: 35.5 µM [activator, single point] | –
COc1cc2ccccc2cc1C(=O)Nc1ccc2oc(-c3ccc(Cl)cc3)nc2c1 | inconclusive: 20 µM [activator, partial curve] | –
O=C(Nc1nnc(S(=O)(=O)Cc2ccc(F)cc2)s1)c1ccccc1F | inconclusive: 39.8 µM [activator, single point] | –
Cc1cc(=O)n2c(sc3ccccc32)c1C#N | inconclusive: 35.5 µM [activator, single point] | –
O=C(Cn1c2ccc(F)cc2c2nc3n(c(=O)c21)CCS3)NC1CCCC1 | inconclusive: 15.8 µM [activator, partial curve] | –
CSc1ncc(C(=O)NCc2ccc(C)cc2)c(-c2ccccc2)n1 | inconclusive: 39.8 µM [activator, single point] | –
COc1ccc(-c2cc(C(=O)Nc3cc(C)on3)no2)cc1OC | inconclusive: 35.5 µM [activator, partial curve] | –
COc1ccc(NC(=O)Cn2c(=O)n(Cc3ccccc3Cl)c(=O)c3cc(OC)c(OC)cc32)cc1OC | active: 25.1 µM | –
COc1cc(NC(=O)Cn2cnc3c2c(=O)n(C)c(=O)n3C)c(OC)cc1Cl | inconclusive: 15.8 µM [activator, partial curve] | –
Cc1cc(C)c2c(=O)[nH]c(SCC(=O)N3CCOCC3)nc2n1 | inconclusive: 22.4 µM [activator, partial curve] | –
Cc1cc(C)nc(N2CCC(C(=O)Nc3ccc4c(c3)CCC4)CC2)n1 | inconclusive: 39.8 µM [activator, single point] | –
CCN(CCCNC(=O)CCn1c(=S)[nH]c2cc3c(cc2c1=O)OCO3)c1cccc(C)c1 | inconclusive: 31.6 µM [activator, single point] | –
CCC(=O)N1CCc2cc(Br)cc(S(=O)(=O)CCC(=O)Nc3ccc(C)c(F)c3)c21 | inconclusive: 35.5 µM [activator, single point] | –
CCCCOc1cccc(C2C(C(=O)c3ccc(C)o3)=C(O)C(=O)N2c2nnc(C)s2)c1 (stereo not given) | inconclusive: 28.2 µM [activator, partial curve] | –
COc1ccc(-c2noc(-c3ccc(NC4CCCCC4)c([N+](=O)[O-])c3)n2)cc1 | inconclusive: 39.8 µM [activator, single point] | –
N#Cc1c(N2CCOCC2)nc(N)c2c(N)nc3c(c12)CC(CCl)O3 (stereo not given) | inconclusive: 22.4 µM [activator, partial curve] | –
